# Results published in the supplement of paper PMC8728848.
# The list shows a part of the results.
# B1: HPA (Helix pomatia), Q575S3 (protein)
# chain: MWAHLTGLLLICALSLSAAQRAQTGEIDCGSDSSWPKDPSDNPNRDNTREIVKHVTFSPQFCREPKVILSVTTLDAEHTKNLRYEARLKSVSPSGLSASCYSWHDGTIYRMKLSWLAVED
# Columns and labels:
# Test in all cases: glycan array binding signal (z-score within array); higher = stronger binding
# Settings in all cases: glycan notation: IUPAC condensed, linker removed
# [1] = target: GalNAc3S(b1-4)[Fuc(a1-3)]GlcNAc
# Outline: (§1)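 From the Consortium for Functional Glycomics database, 3228 arrays were curated, keeping only those whose protein sequence was available. Binding is given as a within-array Z-score averaged across arrays sharing a protein sequence and across linkers. Negative Z-scores can be read as non-binding.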
# [2] = target: GalNAc4S6S(b1-4)GlcNAc
# Outline: as §1
# [3] = target: GalNAc6S(b1-4)GlcNAc
# Outline: as §1
# [4] = target: Glc(a1-4)Glc
# Outline: as §1
# [5] = target: Glc(a1-4)Glc(a1-4)Glc(a1-4)Glc
# Outline: as §1
# [6] = target: Glc(a1-6)Glc(a1-6)Glc
# Outline: as §1
# [7] = target: Glc(a1-6)Glc(a1-6)Glc(a1-6)Glc
# Outline: as §1
# [8] = target: Glc(b1-4)Glc
# Outline: as §1
# [9] = target: Glc(b1-6)Glc
# Outline: as §1
# [10] = target: GlcA(b1-3)Gal
# Outline: as §1
# [11] = target: GlcA(b1-3)GlcNAc
# Outline: as §1
# [12] = target: GlcA(b1-6)Gal
# Outline: as §1
# [13] = target: GlcA3S(b1-3)Gal(b1-4)GlcNAc(b1-2)Man
# Outline: as §1
# [14] = target: GlcA3S(b1-3)Gal(b1-4)GlcNAc(b1-3)Gal(b1-4)Glc
# Outline: as §1
# [15] = target: GlcNAc(a1-3)Gal(b1-4)GlcNAc
# Outline: as §1
# [16] = target: GlcNAc(a1-4)Gal(b1-3)GlcNAc
# Outline: as §1
# [17] = target: GlcNAc(a1-4)Gal(b1-4)GalNAc
# Outline: as §1
# [18] = target: GlcNAc(a1-4)Gal(b1-4)GlcNAc
# Outline: as §1
# [19] = target: GlcNAc(a1-4)Gal(b1-4)GlcNAc(b1-3)Gal(b1-4)Glc
# Outline: as §1
# [20] = target: GlcNAc(a1-4)Gal(b1-4)GlcNAc(b1-3)Gal(b1-4)GlcNAc
# Outline: as §1
# [21] = target: GlcNAc(a1-4)Gal(b1-4)GlcNAc(b1-3)Gal(b1-4)GlcNAc(b1-3)Gal(b1-4)GlcNAc
# Outline: as §1
# [22] = target: GlcNAc(a1-4)Gal(b1-4)GlcNAc(b1-3)Gal(b1-4)[Fuc(a1-3)]GlcNAc(b1-3)Gal(b1-4)[Fuc(a1-3)]GlcNAc
# Outline: as §1
# [23] = target: GlcNAc(a1-6)Gal(b1-4)GlcNAc
# Outline: as §1
# [24] = target: GlcNAc(b1-2)Gal(b1-3)GalNAc
# Outline: as §1
# [25] = target: GlcNAc(b1-2)Man(a1-3)[GlcNAc(b1-2)Man(a1-6)]Man(b1-4)GlcNAc(b1-4)GlcNAc
# Outline: as §1
# [26] = target: GlcNAc(b1-2)Man(a1-3)[GlcNAc(b1-2)Man(a1-6)]Man(b1-4)GlcNAc(b1-4)[Fuc(a1-6)]GlcNAc
# Outline: as §1
# [27] = target: GlcNAc(b1-2)Man(a1-3)[GlcNAc(b1-4)][GlcNAc(b1-2)Man(a1-6)]Man(b1-4)GlcNAc(b1-4)GlcNAc
# Outline: as §1
# [28] = target: GlcNAc(b1-2)Man(a1-3)[GlcNAc(b1-4)][GlcNAc(b1-2)Man(a1-6)]Man(b1-4)GlcNAc(b1-4)[Fuc(a1-6)]GlcNAc
# Outline: as §1
# [29] = target: GlcNAc(b1-2)[GlcNAc(b1-4)]Man(a1-3)[GlcNAc(b1-2)Man(a1-6)]Man(b1-4)GlcNAc(b1-4)GlcNAc
# Outline: as §1
# [30] = target: GlcNAc(b1-2)[GlcNAc(b1-4)]Man(a1-3)[GlcNAc(b1-4)][GlcNAc(b1-2)Man(a1-6)]Man(b1-4)GlcNAc(b1-4)GlcNAc
# Outline: as §1
# [31] = target: GlcNAc(b1-2)[GlcNAc(b1-4)]Man(a1-3)[GlcNAc(b1-4)][GlcNAc(b1-2)[GlcNAc(b1-6)]Man(a1-6)]Man(b1-4)GlcNAc(b1-4)GlcNAc
# Outline: as §1
# [32] = target: GlcNAc(b1-2)[GlcNAc(b1-4)]Man(a1-3)[GlcNAc(b1-4)][GlcNAc(b1-2)[GlcNAc(b1-6)]Man(a1-6)]Man(b1-4)GlcNAc(b1-4)[Fuc(a1-6)]GlcNAc
# Outline: as §1
# [33] = target: GlcNAc(b1-2)[GlcNAc(b1-6)]Man(a1-6)[GlcNAc(b1-2)Man(a1-3)]Man(b1-4)GlcNAc(b1-4)GlcNAc
# Outline: as §1
# [34] = target: GlcNAc(b1-2)[GlcNAc(b1-6)]Man(a1-6)[GlcNAc(b1-2)Man(a1-3)]Man(b1-4)GlcNAc(b1-4)[Fuc(a1-6)]GlcNAc
# Outline: as §1
# [35] = target: GlcNAc(b1-2)[GlcNAc(b1-6)]Man(a1-6)[GlcNAc(b1-2)Man(a1-3)][GlcNAc(b1-4)]Man(b1-4)GlcNAc(b1-4)GlcNAc
# Outline: as §1
# [36] = target: GlcNAc(b1-2)[GlcNAc(b1-6)]Man(a1-6)[GlcNAc(b1-4)][GlcNAc(b1-2)Man(a1-3)]Man(b1-4)GlcNAc(b1-4)GlcNAc
# Outline: as §1
# [37] = target: GlcNAc(b1-3)Fuc
# Outline: as §1
# [38] = target: GlcNAc(b1-3)Gal
# Outline: as §1
# [39] = target: GlcNAc(b1-3)Gal(b1-3)GalNAc
# Outline: as §1
# [40] = target: GlcNAc(b1-3)Gal(b1-4)Glc
# Outline: as §1
# [41] = target: GlcNAc(b1-3)Gal(b1-4)GlcNAc
# Outline: as §1
# [42] = target: GlcNAc(b1-3)Gal(b1-4)GlcNAc(b1-2)Man(a1-3)[GlcNAc(b1-3)Gal(b1-4)GlcNAc(b1-2)Man(a1-6)]Man(b1-4)GlcNAc(b1-4)GlcNAc
# Outline: as §1
# [43] = target: GlcNAc(b1-3)Gal(b1-4)GlcNAc(b1-2)Man(a1-3)[GlcNAc(b1-3)Gal(b1-4)GlcNAc(b1-2)Man(a1-6)]Man(b1-4)GlcNAc(b1-4)[Fuc(a1-6)]GlcNAc
# Outline: as §1
# [44] = target: GlcNAc(b1-3)Gal(b1-4)GlcNAc(b1-2)[GlcNAc(b1-3)Gal(b1-4)GlcNAc(b1-6)]Man(a1-6)[GlcNAc(b1-3)Gal(b1-4)GlcNAc(b1-2)Man(a1-3)]Man(b1-4)GlcNAc(b1-4)GlcNAc
# Outline: as §1
# [45] = target: GlcNAc(b1-3)Gal(b1-4)GlcNAc(b1-3)Gal(b1-4)GlcNAc
# Outline: as §1
binder,measurement,setting,value
B1,glycan array binding signal (z-score),[1],-0.26
same,glycan array binding signal (z-score),[2],-0.265
same,glycan array binding signal (z-score),[3],-0.261
same,glycan array binding signal (z-score),[4],-0.26
same,glycan array binding signal (z-score),[5],-0.251
same,glycan array binding signal (z-score),[6],-0.262
same,glycan array binding signal (z-score),[7],-0.253
same,glycan array binding signal (z-score),[8],-0.26
same,glycan array binding signal (z-score),[9],-0.266
same,glycan array binding signal (z-score),[10],-0.262
same,glycan array binding signal (z-score),[11],-0.223
same,glycan array binding signal (z-score),[12],-0.262
same,glycan array binding signal (z-score),[13],-0.254
same,glycan array binding signal (z-score),[14],-0.256
same,glycan array binding signal (z-score),[15],4.69
same,glycan array binding signal (z-score),[16],2.46
same,glycan array binding signal (z-score),[17],1.46
same,glycan array binding signal (z-score),[18],2.55
same,glycan array binding signal (z-score),[19],3.77
same,glycan array binding signal (z-score),[20],4.37
same,glycan array binding signal (z-score),[21],4.21
same,glycan array binding signal (z-score),[22],2.8
same,glycan array binding signal (z-score),[23],0.921
same,glycan array binding signal (z-score),[24],-0.258
same,glycan array binding signal (z-score),[25],-0.268
same,glycan array binding signal (z-score),[26],-0.257
same,glycan array binding signal (z-score),[27],-0.245
same,glycan array binding signal (z-score),[28],-0.264
same,glycan array binding signal (z-score),[29],-0.181
same,glycan array binding signal (z-score),[30],-0.201
same,glycan array binding signal (z-score),[31],-0.18
same,glycan array binding signal (z-score),[32],0.175
same,glycan array binding signal (z-score),[33],-0.252
same,glycan array binding signal (z-score),[34],-0.251
same,glycan array binding signal (z-score),[35],-0.24
same,glycan array binding signal (z-score),[36],-0.266
same,glycan array binding signal (z-score),[37],-0.107
same,glycan array binding signal (z-score),[38],-0.271
same,glycan array binding signal (z-score),[39],-0.215
same,glycan array binding signal (z-score),[40],-0.269
same,glycan array binding signal (z-score),[41],-0.268
same,glycan array binding signal (z-score),[42],-0.256
same,glycan array binding signal (z-score),[43],-0.244
same,glycan array binding signal (z-score),[44],-0.201
same,glycan array binding signal (z-score),[45],-0.248
